In the supplement of paper PMC11741623:
Some of the results follow. Interaction screen of human proteins with wild-type SARS-CoV-2 proteins by split-DHFR complementation in yeast, 1 µg/mL methotrexate. Value = fitness of the pair (three or more lineages) minus that of the viral protein without a human partner, on a scale set by negative (0) and fused positive (1) controls, mean of up to three cultures; higher = more likely to interact. Active = false discovery rate below 0.05 (one-sided t-test) in at least one culture. Nearly all pairs are not hits, and differences among them are mostly noise (correlation between cultures about 0.3); most hits were seen in one culture only. Human sequences are the Swiss-Prot entries looked up by gene name; the clone may be another isoform. NSP2 values were corrected by the authors for a growth advantage. Listed are human proteins with a hit and a random twelfth of the others.

B1: TAS2R7, Q9NYW3 (protein)
chain: MADKVQTTLLFLAVGEFSVGILGNAFIGLVNCMDWVKKRKIASIDLILTSLAISRICLLCVILLDCFILVLYPDVYATGKEMRIIDFFWTLTNHLSIWFATCLSIYYFFKIGNFFHPLFLWMKWRIDRVISWILLGCVVLSVFISLPATENLNADFRFCVKAKRKTNLTWSCRVNKTQHASTKLFLNLATLLPFCVCLMSFFLLILSLRRHIRRMQLSATGCRDPSTEAHVRALKAVISFLLLFIAYYLSFLIATSSYFMPETELAVIFGESIALIYPSSHSFILILGNNKLRHASLKVIWKVMSILKGRKFQQHKQI
B2: ABHD16A, O95870 (protein)
chain: MAKLLSCVLGPRLYKIYRERDSERAPASVPETPTAVTAPHSSSWDTYYQPRALEKHADSILALASVFWSISYYSSPFAFFYLYRKGYLSLSKVVPFSHYAGTLLLLLAGVACLRGIGRWTNPQYRQFITILEATHRNQSSENKRQLANYNFDFRSWPVDFHWEEPSSRKESRGGPSRRGVALLRPEPLHRGTADTLLNRVKKLPCQITSYLVAHTLGRRMLYPGSVYLLQKALMPVLLQGQARLVEECNGRRAKLLACDGNEIDTMFVDRRGTAEPQGQKLVICCEGNAGFYEVGCVSTPLEAGYSVLGWNHPGFAGSTGVPFPQNEANAMDVVVQFAIHRLGFQPQDIIIYAWSIGGFTATWAAMSYPDVSAMILDASFDDLVPLALKVMPDSWRGLVTRTVRQHLNLNNAEQLCRYQGPVLLIRRTKDEIITTTVPEDIMSNRGNDLLLKLLQHRYPRVMAEEGLRVVRQWLEASSQLEEASIYSRWEVEEDWCLSVLRSYQAEHGPDFPWSVGEDMSADGRRQLALFLARKHLHNFEATHCTPLPAQNFQMPWHL
B3: RNF8, O76064 (protein)
chain: MGEPGFFVTGDRAGGRSWCLRRVGMSAGWLLLEDGCEVTVGRGFGVTYQLVSKICPLMISRNHCVLKQNPEGQWTIMDNKSLNGVWLNRARLEPLRVYSIHQGDYIQLGVPLENKENAEYEYEVTEEDWETIYPCLSPKNDQMIEKNKELRTKRKFSLDELAGPGAEGPSNLKSKINKVSCESGQPVKSQGKGEVASTPSDNLDPKLTALEPSKTTGAPIYPGFPKVTEVHHEQKASNSSASQRSLQMFKVTMSRILRLKIQMQEKHEAVMNVKKQTQKGNSKKVVQMEQELQDLQSQLCAEQAQQQARVEQLEKTFQEEEQHLQGLEIAQGEKDLKQQLAQALQEHWALMEELNRSKKDFEAIIQAKNKELEQTKEEKEKMQAQKEEVLSHMNDVLENELQCIICSEYFIEAVTLNCAHSFCSYCINEWMKRKIECPICRKDIKSKTYSLVLDNCINKMVNNLSSEVKERRIVLIRERKAKRLF
B4: VSIG8, P0DPA2 (protein)
chain: MRVGGAFHLLLVCLSPALLSAVRINGDGQEVLYLAEGDNVRLGCPYVLDPEDYGPNGLDIEWMQVNSDPAHHRENVFLSYQDKRINHGSLPHLQQRVRFAASDPSQYDASINLMNLQVSDTATYECRVKKTTMATRKVIVTVQARPAVPMCWTEGHMTYGNDVVLKCYASGGSQPLSYKWAKISGHHYPYRAGSYTSQHSYHSELSYQESFHSSINQGLNNGDLVLKDISRADDGLYQCTVANNVGYSVCVVEVKVSDSRRIGVIIGIVLGSLLALGCLAVGIWGLVCCCCGGSGAGGARGAFGYGNGGGVGGGACGDLASEIREDAVAPGCKASGRGSRVTHLLGYPTQNVSRSLRRKYAPPPCGGPEDVALAPCTAAAACEAGPSPVYVKVKSAEPADCAEGPVQCKNGLLV

biological target: SARS-CoV-2 E; experiment: yeast fitness gain over the viral ORF with no human partner (scaled fitness); higher = more likely to interact
Protocol: (§1)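 Split mouse DHFR complementation in pooled diploid yeast: human ORFeome clones carry one fragment and viral ORFs the other; barcoded lineages compete in 1 µg/mL methotrexate and fitness is read by barcode sequencing in up to three cultures.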

Binder	yeast fitness gain
B1	inactive: 0.363
B2	inactive: 0.323
B3	inactive: -0.0279
B4	inactive: -0.055

biological target: SARS-CoV-2 M; experiment: as above
Protocol: as §1

Binder	yeast fitness gain
B1	inactive: -0.0157
B2	inactive: -0.0189
B3	inactive: 0.0736
B4	inactive: 0.0325

biological target: SARS-CoV-2 N; experiment: as above
Protocol: as §1

Binder	yeast fitness gain
B1	inactive: 0.0696
B2	inactive: 0.0436
B3	inactive: -0.0985
B4	inactive: -0.0313

biological target: SARS-CoV-2 NSP1; experiment: as above
Protocol: as §1

Binder	yeast fitness gain
B1	inactive: 0.0119
B2	inactive: 0.0405
B3	inactive: -0.0818
B4	inactive: 0.0352

biological target: SARS-CoV-2 NSP10; experiment: as above
Protocol: as §1

Binder	yeast fitness gain
B1	inactive: -0.0498
B2	inactive: 0.0134
B3	inactive: -0.017
B4	inactive: -0.0515

biological target: SARS-CoV-2 NSP12; experiment: as above
Protocol: as §1

Binder	yeast fitness gain
B1	inactive: -0.0414
B2	inactive: -0.0175
B3	inactive: -0.0751
B4	inactive: -0.0328

biological target: SARS-CoV-2 NSP13; experiment: as above
Protocol: as §1

Binder	yeast fitness gain
B1	inactive: -0.0258
B2	inactive: -0.0156
B3	inactive: -0.0795
B4	inactive: -0.0599

biological target: SARS-CoV-2 NSP14; experiment: as above
Protocol: as §1

Binder	yeast fitness gain
B1	inactive: 0.176
B3	inactive: -0.453
B4	inactive: -0.333

biological target: SARS-CoV-2 NSP15; experiment: as above
Protocol: as §1

Binder	yeast fitness gain
B1	inactive: -0.152
B2	inactive: 0.0809
B3	inactive: 0.0871
B4	inactive: 0.0513

biological target: SARS-CoV-2 NSP16; experiment: as above
Protocol: as §1

Binder	yeast fitness gain
B1	inactive: -0.0818
B2	inactive: -0.0676
B3	inactive: 0.00789
B4	inactive: -0.0626

biological target: SARS-CoV-2 NSP2; experiment: as above
Protocol: as §1

Binder	yeast fitness gain
B1	inactive: -0.178
B2	inactive: -0.12
B3	inactive: -0.155
B4	inactive: -0.129

biological target: SARS-CoV-2 NSP4; experiment: as above
Protocol: as §1

Binder	yeast fitness gain
B1	active: 0.795
B2	inactive: 0.237
B4	inactive: 0.0605

biological target: SARS-CoV-2 NSP5; experiment: as above
Protocol: as §1

Binder	yeast fitness gain
B1	inactive: -0.0332
B2	inactive: 0.0496
B3	inactive: -0.00676
B4	inactive: 0.0419

biological target: SARS-CoV-2 NSP6; experiment: as above
Protocol: as §1

Binder	yeast fitness gain
B1	inactive: -0.0908
B2	inactive: 0.0339
B3	inactive: 0.0314
B4	inactive: -0.00128

biological target: SARS-CoV-2 NSP7; experiment: as above
Protocol: as §1

Binder	yeast fitness gain
B1	inactive: -0.202
B2	inactive: 0.0277
B3	inactive: 0.0795
B4	inactive: 0.021

biological target: SARS-CoV-2 NSP8; experiment: as above
Protocol: as §1

Binder	yeast fitness gain
B1	inactive: -0.0695
B2	inactive: 0.0121
B3	inactive: -0.0107
B4	inactive: -0.0346

biological target: SARS-CoV-2 NSP9; experiment: as above
Protocol: as §1

Binder	yeast fitness gain
B1	inactive: -0.071
B2	inactive: 0.0194
B3	inactive: 0.0103
B4	inactive: -0.0381

biological target: SARS-CoV-2 ORF10; experiment: as above
Protocol: as §1

Binder	yeast fitness gain
B1	inactive: -0.0328
B2	inactive: -0.0488
B3	inactive: -0.0101
B4	inactive: -0.0426

biological target: SARS-CoV-2 ORF3A; experiment: as above
Protocol: as §1

Binder	yeast fitness gain
B1	inactive: 0.143
B2	inactive: 0.00201
B3	inactive: 0.0656
B4	inactive: -0.000841

biological target: SARS-CoV-2 ORF3B; experiment: as above
Protocol: as §1

Binder	yeast fitness gain
B1	inactive: -0.083
B2	inactive: 0.0205
B3	inactive: -0.0626
B4	inactive: -0.019

biological target: SARS-CoV-2 ORF6; experiment: as above
Protocol: as §1

Binder	yeast fitness gain
B1	inactive: -0.09
B2	active: 0.259
B3	inactive: 0.019
B4	inactive: 0.00813

biological target: SARS-CoV-2 ORF7A; experiment: as above
Protocol: as §1

Binder	yeast fitness gain
B1	active: 0.611
B2	inactive: 0.0494
B3	inactive: -0.025
B4	inactive: 0.071

biological target: SARS-CoV-2 ORF7B; experiment: as above
Protocol: as §1

Binder	yeast fitness gain
B1	active: 0.782
B2	inactive: 0.0921
B3	inactive: 0.00347
B4	inactive: -0.0546

biological target: SARS-CoV-2 ORF8; experiment: as above
Protocol: as §1

Binder	yeast fitness gain
B1	inactive: -0.104
B2	inactive: -0.00612
B3	inactive: 0.00598
B4	inactive: -0.0433

biological target: SARS-CoV-2 ORF9B; experiment: as above
Protocol: as §1

Binder	yeast fitness gain
B1	inactive: -0.0698
B2	inactive: 0.0563
B3	inactive: -0.000426
B4	inactive: -0.022

biological target: SARS-CoV-2 ORF9Bwu (the 73-codon ORF); experiment: as above
Protocol: as §1

Binder	yeast fitness gain
B1	inactive: 0.283
B2	inactive: 0.0584
B3	inactive: -0.0394
B4	inactive: 0.0191

biological target: SARS-CoV-2 S; experiment: as above
Protocol: as §1

Binder	yeast fitness gain
B1	inactive: -0.0268
B2	inactive: 0.035
B3	inactive: 0.0582
B4	inactive: 0.063
